Laboratory results published in paper PMC4336329 (PLoS ONE, 2015).
In all, about 310,000 compounds went through this assay and about 2,200 (0.71%) showed an effect of 50% or more. Effects have a minus sign here. This is one part of the list.

Target: human ether-à-go-go-related gene (hERG) potassium channel (human, UniProt Q12809)
Assay: primary screen, population patch clamp on CHO cells stably expressing hERG

Chain of human ether-à-go-go-related gene (hERG) potassium channel (Q12809 whole entry, looked up): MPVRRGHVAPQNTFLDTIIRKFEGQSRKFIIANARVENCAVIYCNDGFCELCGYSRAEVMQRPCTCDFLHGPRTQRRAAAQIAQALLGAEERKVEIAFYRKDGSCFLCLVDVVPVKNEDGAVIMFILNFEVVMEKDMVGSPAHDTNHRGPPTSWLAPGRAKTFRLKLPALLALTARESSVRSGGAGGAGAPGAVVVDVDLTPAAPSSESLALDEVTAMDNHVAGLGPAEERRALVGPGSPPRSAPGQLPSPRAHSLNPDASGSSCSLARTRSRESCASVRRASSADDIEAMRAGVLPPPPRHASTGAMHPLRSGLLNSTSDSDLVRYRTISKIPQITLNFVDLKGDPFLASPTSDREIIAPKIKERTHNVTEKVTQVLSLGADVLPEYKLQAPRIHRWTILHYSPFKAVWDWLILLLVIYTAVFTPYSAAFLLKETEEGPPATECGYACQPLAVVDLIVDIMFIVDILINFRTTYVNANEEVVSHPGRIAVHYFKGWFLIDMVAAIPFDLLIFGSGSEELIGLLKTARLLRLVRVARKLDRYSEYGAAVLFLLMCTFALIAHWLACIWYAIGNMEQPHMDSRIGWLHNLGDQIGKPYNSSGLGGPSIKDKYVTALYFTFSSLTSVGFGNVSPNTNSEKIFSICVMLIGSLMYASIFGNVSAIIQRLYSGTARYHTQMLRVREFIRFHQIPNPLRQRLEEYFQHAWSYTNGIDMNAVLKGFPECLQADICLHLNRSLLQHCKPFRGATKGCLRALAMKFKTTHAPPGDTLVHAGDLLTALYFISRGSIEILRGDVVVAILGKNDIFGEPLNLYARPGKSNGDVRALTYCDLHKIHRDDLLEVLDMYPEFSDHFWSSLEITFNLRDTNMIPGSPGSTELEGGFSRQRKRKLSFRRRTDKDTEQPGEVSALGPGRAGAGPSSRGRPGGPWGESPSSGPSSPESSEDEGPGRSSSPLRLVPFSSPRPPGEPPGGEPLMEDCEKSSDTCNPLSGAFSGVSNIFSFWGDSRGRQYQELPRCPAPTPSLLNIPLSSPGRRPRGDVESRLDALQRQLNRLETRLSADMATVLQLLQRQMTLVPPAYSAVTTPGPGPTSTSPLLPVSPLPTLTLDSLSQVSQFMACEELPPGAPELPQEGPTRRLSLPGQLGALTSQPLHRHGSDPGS

Row | SMILES | hERG current change (%, negative = inhibition) at 1uM
1 | O=C(NC1CCCCC1)C1CCCN1S(=O)(=O)c1ccc(F)cc1 (stereo not drawn) | 9.38%
2 | O=C(O)c1cc(C2CC2)nc2ccccc12 | 6.09%
3 | O=c1[nH]cccc1-c1nc2ccccc2n1Cc1ccc(Cl)cc1 | 5.27%
4 | O=C(COC(=O)c1cc[n+]([O-])cc1)Nc1ccc([N+](=O)[O-])cc1 | 14.1%
5 | C/C=C\C=C\C(=O)Nc1cccc(C2=NOC3(C2)C[C@H](C(N)=O)N(C(=O)c2ccccc2C(=O)c2ccccc2)C3)c1 (stereo partly drawn) | -8.75%
6 | O=C(COc1ccccc1)N1CCN(C(=O)Cc2ccccc2)CC1 | 4.27%
7 | Cc1cc(C)cc(Oc2nc(-c3ccccc3)cc(C)c2S(C)(=O)=O)c1 | 3.23%
8 | Cc1ccc(C(=O)NCc2ccccc2CN2CCCC2)cc1S(=O)(=O)N1CCOCC1 | -18.1%
9 | CC(=O)NCC(=O)NC1CCCc2c1cnn2-c1ccccc1F (stereo not drawn) | 15.3%
10 | COCCn1c(C)cc(C(=O)COc2ccc(N(C)S(=O)(=O)c3ccc(C)cc3)cc2)c1C | -1.25%
11 | COCCN1C(=O)N(c2ccccc2)C(=O)C1CC(=O)Nc1cc(OC)cc(OC)c1 (stereo not drawn) | 12.7%
12 | Cn1c(=O)cc(SCC(=O)NCCC2=CCCCC2)c2ccccc21 | 1.32%
13 | CC1(C)CC(=O)C2=C(C1)Nc1cc3c(cc1C2c1ccc(F)cc1)OCO3 (stereo not drawn) | -37%
14 | Cc1c(C#N)c(NC(=O)CCl)n(Cc2cccs2)c1C | 4.25%
15 | O=C(NCC(c1cccnc1)N1CCN(c2ccc(F)cc2)CC1)c1cccc(Cl)c1 (stereo not drawn) | -18.3%
16 | CCOC(=O)N1CCC2(CC1)NCCc1c2[nH]c2ccccc12 | 10.4%
17 | COc1cccc(CNCCO)c1OCc1ccccc1Cl.Cl | 5.91%
18 | COc1ccc(CCNC(=O)C(C(=O)c2ccccc2)n2ccccc2=O)cc1OC (stereo not drawn) | 0.22%
19 | O=C(c1ccc(S(=O)(=O)Nc2ccccc2)cc1)N1CCOCC1 | 9.89%
20 | CC(=O)Nc1ccc(S(=O)(=O)N(Cc2cc3ccc(C)cc3[nH]c2=O)CC2CCCO2)cc1 (stereo not drawn) | 14%
21 | Cc1c(NC(=O)CSCc2ccc(Br)cc2)c(=O)n(-c2ccccc2)n1C | 7.74%
22 | Cc1ccc(NC(=S)NCc2ccc(Cl)cc2)c(C)c1 | 9.07%
23 | O=C1N(Cc2cccnc2)C[C@@H]2C[C@@H](c3ccccc3C(F)(F)F)N3CCC[C@@]123 | 4.66%
24 | CC(=O)c1ccc(NC(=O)Cn2cnc(S(=O)(=O)N3CCc4ccccc43)c2)cc1 | 15%
25 | COc1ccc(OC)c(NC(=O)CSc2nncc3ccccc23)c1 | 13.1%
26 | Cc1ccccc1C(=O)Nn1cnnc1 | 12.2%
27 | CCCC(C(=O)NC1CCCC1)N(Cc1ccc2c(c1)OCO2)C(=O)c1snc(C(N)=O)c1N (stereo not drawn) | 9.52%

Row | SMILES | hERG current change (%, negative = inhibition) at 1uM
28 | Cc1c(C)c2cc(Cl)c(OCC(=O)NC3CC(C)(C)NC(C)(C)C3)cc2oc1=O | 6.59%
29 | COC(=O)CCCC1=CC2=C(c3ccccc3)C(=O)C(C)(OC(=O)C3CCCC3)C(=O)C2=CN1c1ccc(OC)cc1 (stereo not drawn) | -3.18%
30 | COc1ccc(C(C(=O)NC2CCCC2)N(C(=O)c2ccco2)c2ccccc2C(C)=O)cc1OC (stereo not drawn) | 7.35%
31 | O=C1c2cccc3c([N+](=O)[O-])ccc(c23)C(=O)N1c1ccccn1 | 10.6%
32 | CCCCNC(=O)c1cn(CC(C)C)c(=O)c2c1c1ccccc1n2C | 15.7%
33 | Cc1ccc(S(=O)(=O)N2CCN(C)CC2)c(C)c1N(C)S(=O)(=O)c1ccc(Cl)cc1 | -33.3%
34 | COC(=O)CCC(=O)c1oc2ccccc2c1NC(=O)CCCN1C(=O)c2ccccc2C1=O | 4.94%
35 | Cc1cc(C)c(NC(=O)C2CCCN2C(=O)NC2CCCCC2)c(C)c1 (stereo not drawn) | 2%
36 | Cc1ccc2oc(=O)c(/C=C(\O)C(C)(C)C)nc2c1 | 11.6%
37 | Cc1ccc(NC2CCCN(C(=O)c3cccs3)C2)cc1C (stereo not drawn) | 11.4%
38 | COC(=O)CN1C(=O)[C@H]2[C@@H](C3CC3)N3C(=O)CN(CCO)C(=O)[C@@]3(Cc3ccccc3)[C@H]2C1=O | 9.59%
39 | N/C(=N\N=C\c1ccc(O)cc1)c1nonc1N | 11.2%
40 | O=C(CN1CCC(C(=O)c2ccc3c(c2)OCCO3)CC1)Nc1ccccc1F | 5.49%
41 | O=C(O)CC(NCc1ccco1)C(=O)Nc1cccc(O)c1 (stereo not drawn) | 16.9%
42 | CC(C)(C)C1CCC(=NNC(=O)CN(c2ccccc2)S(C)(=O)=O)CC1 (stereo not drawn) | 9.95%
43 | CCOC(=O)N1CCc2c(sc(NC(=O)C3COc4ccccc4O3)c2C(N)=O)C1 (stereo not drawn) | 13.6%
44 | CCOC(=O)C1CCCN(Cc2nc(N)nc(Nc3ccc(C)cc3)n2)C1 (stereo not drawn) | -47.6%
45 | CC(C)(C)NC(=O)Cn1c(Cl)nc2ccccc21 | 4.7%
46 | O=C(NCc1cccnc1)c1ccc(COc2ccccc2Br)cc1 | 16.3%
47 | COc1cccc(CN(C)C(=O)Cc2ccc(OC)c(S(=O)(=O)N3CCOCC3)c2)c1 | -2.85%
48 | CCOC(=O)Nc1ccc(S(=O)(=O)NC2CCCCC2)cc1 | 11%
49 | CC(=O)NNC(=O)CC(=O)Nc1nc(C23CC4CC(CC(C4)C2)C3)cs1 | 20.9%
50 | O=C(CN1CCN(c2ccccc2)CC1)Nc1nccs1 | 9.36%
51 | Cc1ccc(F)c(CNC(=O)C2CCC(=O)N(CCN3CCOCC3)C2)c1F (stereo not drawn) | 17.9%
52 | O=C(NCCc1csc(-c2ccccc2)n1)c1cccs1 | 3.48%
53 | O=C(Nc1nnc(SCc2ccccc2)s1)c1cc2c(s1)CCCC2 | 8.74%
54 | CC(=O)N(C)c1ccc(NC(=O)Nc2ccccc2C)cc1 | 13.4%
